# Results published in the supplement of paper PMC8728848.
# Some of the results follow.
# B1: PX9961A-pdi-456-24-456 (Parabacteroides distasonis) (protein)
# chain: KTSSTQLPTIDAISSVADLTNAVNGVYEQQATEVGSYGAEFTLLADLRSGDFQSISTVNHAGPMYRYQTGKNDEMVYSFYKLFYNSLARLNNVLAAAENLEGADVDILKGELYAMRALYHFDLARVFAKLPSTTDMNDLGIVLSTEVYPTDYIGTRATLQQTYDQILKDIETALPLLSKDKQTGHINYWGALAIRARAYLYLEKNKEALADCKEIIASSPYKLYTRDEYIGAWDKEGTNEAIFEILVTPNYNAQRNSIGYFTHASGYGECAATESFLEELAKHPGDIRTELFAKETDNGYDGTYPQKYKGRDGQIYVNNPKVVRLSEVYLIAAEAALKAGDTSAAAGYMNTLRKNRIENYTDVASITLDDILLERRLELFTEGHTAWDAWRNGKSVNNKFVGEVKPGDYRTIMAIPIGEITVSRGQLIQNPGY
# What was measured:
# Test in all cases: glycan array binding signal (z-score within array); higher = stronger binding
# Settings in all cases: glycan notation: IUPAC condensed, linker removed
# [1] = molecular target: Gal(b1-4)GalNAc(b1-3)[Fuc(a1-2)]Gal(b1-4)GlcNAc
# In short: (§1)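 Glycan array binding is given as a within-array Z-score, which can be read as non-binding when negative. The arrays, 3228 of them, came from the Consortium for Functional Glycomics database and were retained only where the protein sequence was available. Z-scores were averaged across arrays of the same protein sequence at different concentrations or buffers and across linkers.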
# Gal(b1-4)Glc = molecular target: Gal(b1-4)Glc
# In short: as §1
# Gal(b1-4)Glc6S = molecular target: Gal(b1-4)Glc6S
# In short: as §1
# Gal(b1-4)GlcNAc = molecular target: Gal(b1-4)GlcNAc
# In short: as §1
# [2] = molecular target: Gal(b1-4)GlcNAc(a1-6)Gal(b1-4)GlcNAc
# In short: as §1
# Gal(b1-4)GlcNAc(b1-2)Man = molecular target: Gal(b1-4)GlcNAc(b1-2)Man
# In short: as §1
# [3] = molecular target: Gal(b1-4)GlcNAc(b1-2)Man(a1-3)Man(b1-4)GlcNAc(b1-4)GlcNAc
# In short: as §1
# [4] = molecular target: Gal(b1-4)GlcNAc(b1-2)Man(a1-3)[Gal(b1-4)GlcNAc(b1-2)Man(a1-6)]Man(b1-4)GlcNAc(b1-4)GlcNAc
# In short: as §1
# [5] = molecular target: Gal(b1-4)GlcNAc(b1-2)Man(a1-3)[Gal(b1-4)GlcNAc(b1-2)Man(a1-6)]Man(b1-4)GlcNAc(b1-4)[Fuc(a1-6)]GlcNAc
# In short: as §1
# [6] = molecular target: Gal(b1-4)GlcNAc(b1-2)Man(a1-3)[Gal(b1-4)GlcNAc(b1-2)Man(a1-6)][Gal(b1-4)GlcNAc(b1-4)]Man(b1-4)GlcNAc(b1-4)[Fuc(a1-6)]GlcNAc
# In short: as §1
# [7] = molecular target: Gal(b1-4)GlcNAc(b1-2)Man(a1-3)[Gal(b1-4)GlcNAc(b1-2)Man(a1-6)][GlcNAc(b1-4)]Man(b1-4)GlcNAc(b1-4)[Fuc(a1-6)]GlcNAc
# In short: as §1
# [8] = molecular target: Gal(b1-4)GlcNAc(b1-2)Man(a1-3)[GlcNAc(b1-2)Man(a1-6)]Man(b1-4)GlcNAc(b1-4)GlcNAc
# In short: as §1
# [9] = molecular target: Gal(b1-4)GlcNAc(b1-2)Man(a1-3)[GlcNAc(b1-4)][Gal(b1-4)GlcNAc(b1-2)Man(a1-6)]Man(b1-4)GlcNAc(b1-4)GlcNAc
# In short: as §1
# [10] = molecular target: Gal(b1-4)GlcNAc(b1-2)Man(a1-3)[Man(a1-6)]Man(b1-4)GlcNAc(b1-4)GlcNAc
# In short: as §1
# [11] = molecular target: Gal(b1-4)GlcNAc(b1-2)Man(a1-6)Man(b1-4)GlcNAc(b1-4)GlcNAc
# In short: as §1
# [12] = molecular target: Gal(b1-4)GlcNAc(b1-2)Man(a1-6)[GlcNAc(b1-2)Man(a1-3)]Man(b1-4)GlcNAc(b1-4)GlcNAc
# In short: as §1
# [13] = molecular target: Gal(b1-4)GlcNAc(b1-2)Man(a1-6)[Man(a1-3)]Man(b1-4)GlcNAc(b1-4)GlcNAc
# In short: as §1
# [14] = molecular target: Gal(b1-4)GlcNAc(b1-2)[Gal(b1-4)GlcNAc(b1-4)]Man(a1-3)[Gal(b1-4)GlcNAc(b1-2)Man(a1-6)]Man(b1-4)GlcNAc(b1-4)GlcNAc
# In short: as §1
# [15] = molecular target: Gal(b1-4)GlcNAc(b1-2)[Gal(b1-4)GlcNAc(b1-4)]Man(a1-3)[Gal(b1-4)GlcNAc(b1-2)[Gal(b1-4)GlcNAc(b1-6)]Man(a1-6)]Man(b1-4)GlcNAc(b1-4)GlcNAc
# In short: as §1
# [16] = molecular target: Gal(b1-4)GlcNAc(b1-2)[Gal(b1-4)GlcNAc(b1-4)]Man(a1-3)[GlcNAc(b1-4)][Gal(b1-4)GlcNAc(b1-2)Man(a1-6)]Man(b1-4)GlcNAc(b1-4)GlcNAc
# In short: as §1
# [17] = molecular target: Gal(b1-4)GlcNAc(b1-2)[Gal(b1-4)GlcNAc(b1-4)]Man(a1-3)[GlcNAc(b1-4)][Gal(b1-4)GlcNAc(b1-2)[Gal(b1-4)GlcNAc(b1-6)]Man(a1-6)]Man(b1-4)GlcNAc(b1-4)GlcNAc
# In short: as §1
# [18] = molecular target: Gal(b1-4)GlcNAc(b1-2)[Gal(b1-4)GlcNAc(b1-6)]Man(a1-6)[Gal(b1-4)GlcNAc(b1-2)Man(a1-3)]Man(b1-4)GlcNAc(b1-4)GlcNAc
# In short: as §1
# [19] = molecular target: Gal(b1-4)GlcNAc(b1-2)[Gal(b1-4)GlcNAc(b1-6)]Man(a1-6)[Gal(b1-4)GlcNAc(b1-2)Man(a1-3)]Man(b1-4)GlcNAc(b1-4)[Fuc(a1-6)]GlcNAc
# In short: as §1
# [20] = molecular target: Gal(b1-4)GlcNAc(b1-2)[Gal(b1-4)GlcNAc(b1-6)]Man(a1-6)[GlcNAc(b1-4)][Gal(b1-4)GlcNAc(b1-2)Man(a1-3)]Man(b1-4)GlcNAc(b1-4)GlcNAc
# In short: as §1
# [21] = molecular target: Gal(b1-4)GlcNAc(b1-2)[Gal(b1-4)GlcNAc(b1-6)]Man(a1-6)[GlcNAc(b1-4)][Gal(b1-4)GlcNAc(b1-2)[Gal(b1-4)GlcNAc(b1-4)]Man(a1-3)]Man(b1-4)GlcNAc(b1-4)[Fuc(a1-6)]GlcNAc
# In short: as §1
# [22] = molecular target: Gal(b1-4)GlcNAc(b1-3)Gal(b1-3)GalNAc
# In short: as §1
# [23] = molecular target: Gal(b1-4)GlcNAc(b1-3)Gal(b1-3)GlcNAc
# In short: as §1
# [24] = molecular target: Gal(b1-4)GlcNAc(b1-3)Gal(b1-4)Glc
# In short: as §1
# [25] = molecular target: Gal(b1-4)GlcNAc(b1-3)Gal(b1-4)GlcNAc
# In short: as §1
# [26] = molecular target: Gal(b1-4)GlcNAc(b1-3)Gal(b1-4)GlcNAc(b1-2)Man(a1-3)[Gal(b1-4)GlcNAc(b1-3)Gal(b1-4)GlcNAc(b1-2)Man(a1-6)]Man(b1-4)GlcNAc(b1-4)GlcNAc
# In short: as §1
# [27] = molecular target: Gal(b1-4)GlcNAc(b1-3)Gal(b1-4)GlcNAc(b1-2)Man(a1-3)[Gal(b1-4)GlcNAc(b1-3)Gal(b1-4)GlcNAc(b1-2)Man(a1-6)]Man(b1-4)GlcNAc(b1-4)[Fuc(a1-6)]GlcNAc
# In short: as §1
# [28] = molecular target: Gal(b1-4)GlcNAc(b1-3)Gal(b1-4)GlcNAc(b1-2)[Gal(b1-4)GlcNAc(b1-3)Gal(b1-4)GlcNAc(b1-6)]Man(a1-6)[Gal(b1-4)GlcNAc(b1-3)Gal(b1-4)GlcNAc(b1-2)Man(a1-3)]Man(b1-4)GlcNAc(b1-4)GlcNAc
# In short: as §1
# [29] = molecular target: Gal(b1-4)GlcNAc(b1-3)Gal(b1-4)GlcNAc(b1-2)[Gal(b1-4)GlcNAc(b1-3)Gal(b1-4)GlcNAc(b1-6)]Man(a1-6)[Gal(b1-4)GlcNAc(b1-3)Gal(b1-4)GlcNAc(b1-2)Man(a1-3)]Man(b1-4)GlcNAc(b1-4)[Fuc(a1-6)]GlcNAc
# In short: as §1
# [30] = molecular target: Gal(b1-4)GlcNAc(b1-3)Gal(b1-4)GlcNAc(b1-3)Gal(b1-4)GlcNAc
# In short: as §1
# [31] = molecular target: Gal(b1-4)GlcNAc(b1-3)Gal(b1-4)GlcNAc(b1-3)Gal(b1-4)GlcNAc(b1-2)Man(a1-3)[Gal(b1-4)GlcNAc(b1-3)Gal(b1-4)GlcNAc(b1-3)Gal(b1-4)GlcNAc(b1-2)Man(a1-6)]Man(b1-4)GlcNAc(b1-4)GlcNAc
# In short: as §1
# [32] = molecular target: Gal(b1-4)GlcNAc(b1-3)Gal(b1-4)GlcNAc(b1-3)Gal(b1-4)GlcNAc(b1-2)Man(a1-3)[Gal(b1-4)GlcNAc(b1-3)Gal(b1-4)GlcNAc(b1-3)Gal(b1-4)GlcNAc(b1-2)Man(a1-6)]Man(b1-4)GlcNAc(b1-4)[Fuc(a1-6)]GlcNAc
# In short: as §1
# [33] = molecular target: Gal(b1-4)GlcNAc(b1-3)Gal(b1-4)GlcNAc(b1-3)Gal(b1-4)GlcNAc(b1-2)[Gal(b1-4)GlcNAc(b1-3)Gal(b1-4)GlcNAc(b1-3)Gal(b1-4)GlcNAc(b1-6)]Man(a1-6)[Gal(b1-4)GlcNAc(b1-3)Gal(b1-4)GlcNAc(b1-3)Gal(b1-4)GlcNAc(b1-2)Man(a1-3)]Man(b1-4)GlcNAc(b1-4)[Fuc(a1-6)]GlcNAc
# In short: as §1
binder,measurement,setting,value
B1,glycan array binding signal (z-score),[1],-0.317
same,glycan array binding signal (z-score),Gal(b1-4)Glc,-0.498
same,glycan array binding signal (z-score),Gal(b1-4)Glc6S,0.231
same,glycan array binding signal (z-score),Gal(b1-4)GlcNAc,-0.072
same,glycan array binding signal (z-score),[2],-0.465
same,glycan array binding signal (z-score),Gal(b1-4)GlcNAc(b1-2)Man,0.697
same,glycan array binding signal (z-score),[3],-0.263
same,glycan array binding signal (z-score),[4],0.262
same,glycan array binding signal (z-score),[5],0.395
same,glycan array binding signal (z-score),[6],0.133
same,glycan array binding signal (z-score),[7],0.085
same,glycan array binding signal (z-score),[8],-0.158
same,glycan array binding signal (z-score),[9],-0.027
same,glycan array binding signal (z-score),[10],0.546
same,glycan array binding signal (z-score),[11],-0.264
same,glycan array binding signal (z-score),[12],-0.302
same,glycan array binding signal (z-score),[13],-0.241
same,glycan array binding signal (z-score),[14],-0.052
same,glycan array binding signal (z-score),[15],-0.394
same,glycan array binding signal (z-score),[16],0.503
same,glycan array binding signal (z-score),[17],-0.446
same,glycan array binding signal (z-score),[18],0.225
same,glycan array binding signal (z-score),[19],2.12
same,glycan array binding signal (z-score),[20],0.206
same,glycan array binding signal (z-score),[21],-0.001
same,glycan array binding signal (z-score),[22],-0.575
same,glycan array binding signal (z-score),[23],0.087
same,glycan array binding signal (z-score),[24],-0.107
same,glycan array binding signal (z-score),[25],-0.507
same,glycan array binding signal (z-score),[26],2.2
same,glycan array binding signal (z-score),[27],2.48
same,glycan array binding signal (z-score),[28],0.406
same,glycan array binding signal (z-score),[29],1.81
same,glycan array binding signal (z-score),[30],-0.413
same,glycan array binding signal (z-score),[31],1.46
same,glycan array binding signal (z-score),[32],1.03
same,glycan array binding signal (z-score),[33],2.11
